# Several values for one entry are separate records, joined by “and”; a condition that tells them apart may be missing. Equal values may be shown once. The campaign covered roughly 360,000 compounds. About 2,600 (0.72%) were called active. The inconclusive results got no clear call from the source; some entries with a clear call stand among them for comparison. Calls follow the shape of the dose curve; as a rule, active = well fitted inhibition curve with a large enough effect; inconclusive = small, poorly fitted or top-dose-only effect; inactive = no such curve, though single readings can be large or run the other way. Where the call is inconclusive, the potency comes from a doubtful curve fit.
# Experiment: Primary qHTS for Inhibitors of ATXN expression; also: nearly all actives have a fitted effect of over 55% in size
# Settings: HEK-293 ATXN2-luciferase reporter, luminescence, 24 h; activity change, negative = inhibition: at 57 µM (top of the series)
# Summary of the method: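 ATXN2-luciferase reporter cells (luciferase flanked by upstream and downstream ATXN2 gene portions) were treated 24 h at 37 °C with compounds at up to 57 uM. SteadyGlo luminescence gave expression; GF-AFC fluorescence gave viability.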
# % is scaled to controls: 0 for no effect and ±100 for the full control effect; potency is read from the fitted curve at half-maximal effect; tags tell the direction and shape of the fitted curve.
SMILES,Potency,"activity change, negative = inhibition"
Cc1ccccc1N1CCN(Cc2c[nH]c3ccccc23)CC1,"inconclusive: 31.6 µM [inhibitor, partial curve, poor fit]",
S=C(Nc1ccc(Cl)c(Cl)c1)NC1CCN(Cc2ccccc2)CC1,"inconclusive: 35.5 µM [inhibitor, single point]",
CCCC(=O)N1CCC1(C)C(=O)NS(=O)(=O)c1cc2c(cc1C)CCCS2(=O)=O (stereo not drawn),,inactive: 4.73%
Cc1oc(-c2cccs2)nc1CN1CCC(c2ccccc2)CC1,,inactive: 0.205%
NC(=O)CC(NC(=O)c1ccc(Br)cc1)c1ccc(N2CCCCCC2)c([N+](=O)[O-])c1 (stereo not drawn),"inconclusive: 25.1 µM [inhibitor, partial curve]",
CCCc1ccc(Oc2coc3cc(OCC(=O)Nc4ccccc4C)ccc3c2=O)cc1,,inactive: -28%
C#C[C@]1(O)CC[C@H]2[C@@H]3CCc4cc(OC5CCCC5)ccc4[C@H]3CC[C@@]21C,"inconclusive: 31.6 µM [inhibitor, single point] and inconclusive: 39.8 µM [inhibitor, single point]",
Cc1cc(CSc2ccccc2)ccc1NC(=O)c1ccc(CN2CCOCC2)cc1,"inconclusive: 2.24 µM [inhibitor, full curve, poor fit]",
COc1cccc(/C=N/NC(=O)C(C)n2nc(C)c([N+](=O)[O-])c2C)c1O (stereo not drawn),active: 25.1 µM,
NNC(=O)c1cc2c(s1)-c1cc(Cl)ccc1SC2,"inconclusive: 39.8 µM [inhibitor, single point]",
COc1ccc(N[C@@H]2CCN3C(=O)c4ccccc4[C@@H]3C[C@H]2O)cc1,,inactive: 3.36%
CCc1ccc(NC(=O)CSc2ccc(-c3ccccn3)nn2)cc1,"inconclusive: 5.62 µM [inhibitor, full curve, poor fit]",
Cc1csc(NC(=O)CCc2c(C)nc3cc(-c4ccc(Cl)cc4)nn3c2C)n1,"inconclusive: 0.355 µM [inhibitor, full curve, poor fit]",
O=C(NCCCN1CCN(c2ccc(F)cc2)CC1)c1cnn(-c2ccc(F)cc2)c1-n1cccc1,"inconclusive: 28.2 µM [inhibitor, single point]",
Cc1cccc(NC(=O)c2cc(S(=O)(=O)NCc3ccco3)ccc2F)c1C,"inconclusive: 28.2 µM [inhibitor, partial curve, poor fit]",
CCc1cccc(NS(=O)(=O)c2ccc(-n3cccn3)cc2)c1,"inconclusive: 25.1 µM [inhibitor, single point]",
O=C(O)c1cccc(-c2nnn(Cc3ccccc3)n2)c1,,inactive: -23.7%
C[C@H](C(=O)CC(=O)OC(C)(C)C)[C@H](O)c1ccc(C(F)(F)F)cc1,"inconclusive: 28.2 µM [inhibitor, partial curve, poor fit]",
